# Laboratory results published in the supplement of paper PMC8728848.
# The list shows a part of the results.
# What was measured:
# Assay in all cases: glycan array binding signal (z-score within array); higher = stronger binding
# Settings in all cases: glycan notation: IUPAC condensed, linker removed
# [1] = biological target: Man(a1-2)Man(a1-3)[Man(a1-2)Man(a1-6)]Man
# Outline: (§1)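 Negative Z-scores can be read as non-binding. The Z-score is calculated within each array and then averaged across arrays of one protein sequence at different concentrations or buffers and across linkers. Arrays, 3228 in all, were curated from the Consortium for Functional Glycomics database and kept only where the protein sequence was available.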
# [2] = biological target: Man(a1-2)Man(a1-3)[Man(a1-2)Man(a1-6)]Man(a1-6)[Man(a1-2)Man(a1-2)Man(a1-3)]Man
# Outline: as §1
# [3] = biological target: Man(a1-2)Man(a1-3)[Man(a1-2)Man(a1-6)]Man(a1-6)[Man(a1-2)Man(a1-2)Man(a1-3)]Man(b1-4)GlcNAc(b1-4)GlcNAc
# Outline: as §1
# [4] = biological target: Man(a1-2)Man(a1-3)[Man(a1-6)]Man(a1-6)[Man(a1-2)Man(a1-3)]Man(b1-4)GlcNAc(b1-4)GlcNAc
# Outline: as §1
# [5] = biological target: Man(a1-2)Man(a1-6)[Man(a1-3)]Man(a1-6)[Man(a1-2)Man(a1-2)Man(a1-3)]Man
# Outline: as §1
# [6] = biological target: Man(a1-2)Man(a1-6)[Man(a1-3)]Man(a1-6)[Man(a1-2)Man(a1-2)Man(a1-3)]Man(b1-4)GlcNAc(b1-4)GlcNAc
# Outline: as §1
# [7] = biological target: Man(a1-3)[Man(a1-6)]Man
# Outline: as §1
# [8] = biological target: Man(a1-3)[Man(a1-6)]Man(a1-6)[Man(a1-2)Man(a1-3)]Man(b1-4)GlcNAc(b1-4)GlcNAc
# Outline: as §1
# [9] = biological target: Man(a1-3)[Man(a1-6)]Man(a1-6)[Man(a1-3)]Man
# Outline: as §1
# [10] = biological target: Man(a1-3)[Man(a1-6)]Man(a1-6)[Man(a1-3)]Man(b1-4)GlcNAc(b1-4)GlcNAc
# Outline: as §1
# [11] = biological target: Man(a1-3)[Man(a1-6)]Man(b1-4)GlcNAc(b1-4)GlcNAc
# Outline: as §1
# [12] = biological target: Man(a1-3)[Man(a1-6)]Man(b1-4)GlcNAc(b1-4)[Fuc(a1-6)]GlcNAc
# Outline: as §1
# [13] = biological target: Man(a1-6)Man
# Outline: as §1
# [14] = biological target: Man(b1-4)GlcNAc
# Outline: as §1
# [15] = biological target: MurNAc(b1-4)GlcNAc
# Outline: as §1
# [16] = biological target: Neu5Ac(a2-3)Gal
# Outline: as §1
# [17] = biological target: Neu5Ac(a2-3)Gal(b1-3)GalNAc
# Outline: as §1
# [18] = biological target: Neu5Ac(a2-3)Gal(b1-3)GalNAc(b1-3)Gal(a1-4)Gal(b1-4)Glc
# Outline: as §1
# [19] = biological target: Neu5Ac(a2-3)Gal(b1-3)GalNAc(b1-4)Gal(b1-4)Glc
# Outline: as §1
# [20] = biological target: Neu5Ac(a2-3)Gal(b1-3)GalNAc(b1-4)[Neu5Ac(a2-3)]Gal(b1-4)Glc
# Outline: as §1
# [21] = biological target: Neu5Ac(a2-3)Gal(b1-3)GalNAc(b1-4)[Neu5Ac(a2-8)Neu5Ac(a2-3)]Gal(b1-4)Glc
# Outline: as §1
# [22] = biological target: Neu5Ac(a2-3)Gal(b1-3)GalNAc6S
# Outline: as §1
# [23] = biological target: Neu5Ac(a2-3)Gal(b1-3)GlcNAc
# Outline: as §1
# [24] = biological target: Neu5Ac(a2-3)Gal(b1-3)GlcNAc(b1-2)Man
# Outline: as §1
# [25] = biological target: Neu5Ac(a2-3)Gal(b1-3)GlcNAc(b1-2)Man(a1-3)[GlcNAc(b1-4)][Neu5Ac(a2-3)Gal(b1-3)GlcNAc(b1-2)Man(a1-6)]Man(b1-4)GlcNAc(b1-4)GlcNAc
# Outline: as §1
# [26] = biological target: Neu5Ac(a2-3)Gal(b1-3)GlcNAc(b1-2)Man(a1-3)[Neu5Ac(a2-3)Gal(b1-3)GlcNAc(b1-2)Man(a1-6)]Man(b1-4)GlcNAc(b1-4)GlcNAc
# Outline: as §1
# [27] = biological target: Neu5Ac(a2-3)Gal(b1-3)GlcNAc(b1-2)[Neu5Ac(a2-3)Gal(b1-3)GlcNAc(b1-4)]Man(a1-6)[Neu5Ac(a2-3)Gal(b1-3)GlcNAc(b1-2)Man(a1-3)]Man(b1-4)GlcNAc(b1-4)GlcNAc
# Outline: as §1
# [28] = biological target: Neu5Ac(a2-3)Gal(b1-3)GlcNAc(b1-3)Gal(b1-3)GlcNAc
# Outline: as §1
# [29] = biological target: Neu5Ac(a2-3)Gal(b1-3)GlcNAc(b1-3)Gal(b1-4)GlcNAc
# Outline: as §1
# [30] = biological target: Neu5Ac(a2-3)Gal(b1-3)GlcNAc(b1-3)GalNAc
# Outline: as §1
# [31] = biological target: Neu5Ac(a2-3)Gal(b1-3)GlcNAc(b1-6)GalNAc
# Outline: as §1
# [32] = biological target: Neu5Ac(a2-3)Gal(b1-3)GlcNAc6S
# Outline: as §1
# [33] = biological target: Neu5Ac(a2-3)Gal(b1-3)[Fuc(a1-4)]GlcNAc
# Outline: as §1
# [34] = biological target: Neu5Ac(a2-3)Gal(b1-3)[Fuc(a1-4)]GlcNAc(b1-3)Gal(b1-3)[Fuc(a1-4)]GlcNAc
# Outline: as §1
# [35] = biological target: Neu5Ac(a2-3)Gal(b1-3)[Fuc(a1-4)]GlcNAc(b1-3)Gal(b1-4)[Fuc(a1-3)]GlcNAc
# Outline: as §1
# [36] = biological target: Neu5Ac(a2-3)Gal(b1-3)[GlcNAc(b1-6)]GalNAc
# Outline: as §1
# [37] = biological target: Neu5Ac(a2-3)Gal(b1-3)[Neu5Ac(a2-6)]GalNAc
# Outline: as §1
# [38] = biological target: Neu5Ac(a2-3)Gal(b1-3)[Neu5Ac(a2-6)]GlcNAc(b1-3)[Fuc(a1-3)[Gal(b1-4)]GlcNAc(b1-6)]Gal(b1-4)Glc
# Outline: as §1
# [39] = biological target: Neu5Ac(a2-3)Gal(b1-3)]Neu5Ac(a2-3)Gal(b1-4)]GlcNAc
# Outline: as §1
# [40] = biological target: Neu5Ac(a2-3)Gal(b1-4)Glc
# Outline: as §1
# [41] = biological target: Neu5Ac(a2-3)Gal(b1-4)GlcNAc
# Outline: as §1
# [42] = biological target: Neu5Ac(a2-3)Gal(b1-4)GlcNAc(b1-2)Man
# Outline: as §1
# [43] = biological target: Neu5Ac(a2-3)Gal(b1-4)GlcNAc(b1-2)Man(a1-3)[GlcNAc(b1-4)][Neu5Ac(a2-3)Gal(b1-4)GlcNAc(b1-2)Man(a1-6)]Man(b1-4)GlcNAc(b1-4)GlcNAc
# Outline: as §1
# [44] = biological target: Neu5Ac(a2-3)Gal(b1-4)GlcNAc(b1-2)Man(a1-3)[Neu5Ac(a2-3)Gal(b1-4)GlcNAc(b1-2)Man(a1-6)]Man(b1-4)GlcNAc(b1-4)GlcNAc
# Outline: as §1
# [45] = biological target: Neu5Ac(a2-3)Gal(b1-4)GlcNAc(b1-2)Man(a1-3)[Neu5Ac(a2-3)Gal(b1-4)GlcNAc(b1-2)Man(a1-6)]Man(b1-4)GlcNAc(b1-4)[Fuc(a1-6)]GlcNAc
# Outline: as §1
binder,measurement,setting,value
Banana lectin (Musa acuminata) (protein) MNGAIKVGAWGGNGGSAFDMGPAYRIISVKIFSGDVVDAVDVTFTYYGKTETRHFGGSGGTPHEIVLQEGEYLVGMKGEFGNYHGVVVVGKLGFSTNKKSYGPFGNTGGTPFSLPIAAGKISGFFGRGGDFIDAIGVYLEP,glycan array binding signal (z-score),[1],2.88
same,glycan array binding signal (z-score),[2],7.92
same,glycan array binding signal (z-score),[3],3.85
same,glycan array binding signal (z-score),[4],6.18
same,glycan array binding signal (z-score),[5],6.72
same,glycan array binding signal (z-score),[6],7.63
same,glycan array binding signal (z-score),[7],3.32
same,glycan array binding signal (z-score),[8],5.95
same,glycan array binding signal (z-score),[9],2.33
same,glycan array binding signal (z-score),[10],3.55
same,glycan array binding signal (z-score),[11],7.64
same,glycan array binding signal (z-score),[12],3.33
same,glycan array binding signal (z-score),[13],-0.076
same,glycan array binding signal (z-score),[14],-0.19
same,glycan array binding signal (z-score),[15],-0.194
same,glycan array binding signal (z-score),[16],-0.193
same,glycan array binding signal (z-score),[17],-0.193
same,glycan array binding signal (z-score),[18],-0.193
same,glycan array binding signal (z-score),[19],-0.165
same,glycan array binding signal (z-score),[20],-0.193
same,glycan array binding signal (z-score),[21],-0.19
same,glycan array binding signal (z-score),[22],-0.209
same,glycan array binding signal (z-score),[23],-0.194
same,glycan array binding signal (z-score),[24],-0.195
same,glycan array binding signal (z-score),[25],-0.143
same,glycan array binding signal (z-score),[26],-0.186
same,glycan array binding signal (z-score),[27],0.276
same,glycan array binding signal (z-score),[28],-0.192
same,glycan array binding signal (z-score),[29],-0.195
same,glycan array binding signal (z-score),[30],-0.193
same,glycan array binding signal (z-score),[31],-0.194
same,glycan array binding signal (z-score),[32],-0.194
same,glycan array binding signal (z-score),[33],-0.191
same,glycan array binding signal (z-score),[34],-0.14
same,glycan array binding signal (z-score),[35],-0.136
same,glycan array binding signal (z-score),[36],-0.195
same,glycan array binding signal (z-score),[37],-0.191
same,glycan array binding signal (z-score),[38],-0.19
same,glycan array binding signal (z-score),[39],-0.196
same,glycan array binding signal (z-score),[40],-0.193
same,glycan array binding signal (z-score),[41],-0.192
same,glycan array binding signal (z-score),[42],-0.19
same,glycan array binding signal (z-score),[43],-0.191
same,glycan array binding signal (z-score),[44],-0.186
same,glycan array binding signal (z-score),[45],-0.172
